# Results taken from PubChem BioAssay AID2546 (National Center for Advancing Translational Sciences (NCATS), 2010).
# Several values for one entry are separate records, joined by “and”; a condition that tells them apart may be missing. Equal entries are not always repeated. The whole screen tested about 310,000 compounds, of which about 11,000 (3.5%) were called active. The shares of active, inactive and inconclusive entries below differ from those in the screen. Calls come from the whole dose curve; as a rule, active = well fitted inhibition curve with a large enough effect; inconclusive = small, poorly fitted or top-dose-only effect, or effect the other way; inactive = flat fitted curve, though single readings scatter. Potencies of inconclusive entries are doubtful fits and often do not repeat.
# Assay: VP16 counterscreen qHTS for inhibitors of ROR gamma transcriptional activity;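 note: Gal4-VP16 expression switched on by copper sulfate through the metallothionein promoter; nearly all actives have a fitted effect of over 50% in size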
# Conditions: Drosophila S2 Gal4-VP16 UAS-luciferase, luminescence, 20 h; activity, negative = inhibition: at 53.6 µM (top of the series)
# % is set by controls: 0 for no effect and ±100 for the full control effect; potency is the fitted concentration of half-maximal effect; tags give direction and shape of the fitted curve.
SMILES,Potency,"activity, negative = inhibition"
CC(C)(C)c1nnc(SCC(=O)c2ccccc2)n(N)c1=O,"inconclusive: 35.5 µM [inhibitor, single point]",–
COc1ccc(C(=O)Nc2nc3ccccc3[nH]2)cc1,active: 6.31 µM,–
COc1cc(NS(=O)(=O)c2ccc(N/C=C(\C=O)c3nc4cc(Cl)ccc4o3)cc2)nc(OC)n1,"inconclusive: 35.5 µM [inhibitor, single point]",–
Cc1ccc(NS(=O)(=O)c2cc([N+](=O)[O-])ccc2NNC(=S)Nc2cccc(Cl)c2)c(C)c1,"inconclusive: 35.5 µM [inhibitor, single point]",–
CC(C)c1ccc(-n2nc3ccc(N)cc3n2)cc1,"inconclusive: 12.6 µM [inhibitor, single point]",–
c1ccc2c(c1)nc1n2C2(N3CCOCC3)CCCC2C1N1CCOCC1 (stereo not given),"inconclusive: 35.5 µM [inhibitor, single point]",–
Cc1n[nH]c(C)c1Cc1c(F)cccc1Cl,inactive,–
CN(C)S(=O)(=O)c1cccc(-c2nnc(-c3ccccc3)o2)c1,"inconclusive: 5.62 µM [inhibitor, single point]",–
COc1cccc(/C=N/NC(=O)c2ccc(COc3ccc(Cl)cc3Cl)o2)c1,"inconclusive: 35.5 µM [inhibitor, single point]",–
Cc1cccc(NC(=S)N/C(=N/S(=O)(=O)c2ccccc2)c2ccccc2)c1,"inconclusive: 35.5 µM [inhibitor, single point]",–
CCCc1c(C)c2cccc(C)c2[nH]c1=O,inactive,–
COc1ccc(/C=N/Nc2nc3ccccc3c(=O)n2-c2ccccc2)cc1OC,"inconclusive: 35.5 µM [inhibitor, single point]",–
O=S(=O)(Nc1cccc(-n2cnnn2)c1)c1cc(Br)ccc1Br,"inconclusive: 4.47 µM [inhibitor, single point]",–
O=C(Nc1nc2c(F)cc(F)cc2s1)c1ccco1,"inconclusive: 0.199 µM [inhibitor, full curve, poor fit]",–
O=c1c(-c2ccc(F)cc2)nc2cnc(Oc3cccc(Cl)c3)nc2n1C[C@H]1CCCO1,inactive,–
O=C(O)c1ccc(NC(=S)NC(=O)c2cncc(Br)c2)cc1,"inconclusive: 8.91 µM [inhibitor, partial curve]",–
Cc1ccc(N=Cc2cc3c(cc2O)OC(N)=C(C#N)C3c2ccccc2)cc1 (stereo not given),"inconclusive: 35.5 µM [inhibitor, single point]",–
COc1cccc(/C=N/Nc2nc3ccccc3n3cnnc23)c1O,"inconclusive: 35.5 µM [inhibitor, single point]",–
O=C(NCc1ccccn1)c1ccc(Cl)c(S(=O)(=O)Nc2ccccc2C(=O)NCc2ccccn2)c1,"inconclusive: 22.4 µM [inhibitor, single point]",–
Cc1c(C(=O)Nc2ccc(F)cc2)nnn1-c1cccc(C(F)(F)F)c1,active: 15.8 µM,–
O=C(c1ccc(COc2ccccc2Br)cc1)N1CCCCC1,inactive,–
Cc1ccccc1C(=O)NNC1=NCCC1,active: 14.1 µM,–
C=CCc1cccc(/C=N/NC(=O)C(C)Nc2ccc(C)cc2)c1O (stereo not given),active: 2.82 µM,–
CC1CCCCC1NC(=O)CCCn1c(=S)[nH]c2ccsc2c1=O (stereo not given),"inconclusive: 15.8 µM [inhibitor, single point]",–
Cc1cc(SCC(=O)Nc2ccccc2C)nc(C)n1,inactive,–

SMILES,Potency,"activity, negative = inhibition"
CC(=O)Nc1ccc(OCC(O)Cn2c(C)nc3ccccc32)cc1 (stereo not given),active: 7.94 µM,–
CC1CCN(C(=O)/C(=C/c2ccccc2Cl)c2ccccc2)CC1,"inconclusive: 35.5 µM [inhibitor, single point]",–
CCOC(=O)c1c(C)oc2c1c(C(c1cccnc1)N1CCN(C)CC1)c(O)c1ccccc12 (stereo not given),inactive,–
COc1ccc(S(=O)(=O)N2CCCCCC2)cc1C(=O)N(C)Cc1ccc(C(C)(C)C)cc1,"inconclusive: 35.5 µM [inhibitor, single point]",–
Cc1ccc(O)c(N)c1,"inconclusive: 3.55 µM [inhibitor, single point]",–
CCOCCCNC(=S)Nc1ccc(S(N)(=O)=O)cc1,"inconclusive: 6.31 µM [inhibitor, partial curve]",–
COc1ccc(C2CC(c3ccccc3)Oc3cc(OC)ccc32)cc1 (stereo not given),inactive,–
C/C(=N\NC(=O)CCc1ccccc1)C1C(=O)c2ccccc2C1=O,active: 2 µM,–
COc1ccc(C(=O)Nc2ccc(N3CCN(Cc4ccccc4)CC3)cc2)cc1,–,inactive: -8.97% [at 10 µM]
O=C(CCC1CCCC1)Nc1ccccc1-c1ccccc1,"inconclusive: 5.01 µM [activator, single point]",–
CCCC(=O)NC(c1cccs1)c1cc([N+](=O)[O-])c2cccnc2c1O (stereo not given),active: 3.98 µM,–
CCc1ccccc1NC(=O)COC(=O)c1cccs1,inactive,–
COc1ccc(NC(=O)C(C)N2c3cccc4cccc(c34)S2(=O)=O)cc1OC (stereo not given),"inconclusive: 0.178 µM [inhibitor, full curve]",–
O=C(c1ccc2c(=O)n(-c3ccccc3)c(=S)[nH]c2c1)N1CCCCC1,active: 3.16 µM,–
CCOC(=O)C1CCN(C(=O)CCCn2nc(C)c3c(C)n(-c4ccc(C)cc4)nc3c2=O)CC1,inactive,–
O=C(CN1C(=O)C2C3C=CC(C4CC34)C2C1=O)Oc1ccccc1 (stereo not given),–,inactive: -21.2% [at 10 µM]
CC/C(=N\O)c1c(O)c2c(n(-c3ccccc3)c1=O)CCCC2,"inconclusive: 35.5 µM [inhibitor, single point]",–
Cc1cccc(-c2nnc3sc(-c4ccccc4C)nn23)c1,inactive,–
N#Cc1c(SCC(=O)Nc2ccc(Cl)cc2Cl)sc2c(O)cc(=O)[nH]c12,inactive,–
CCc1ccc2nc(N(CCCN(C)C)C(=O)c3ccc(S(=O)(=O)N(C)C4CCCCC4)cc3)sc2c1,"inconclusive: 14.1 µM [inhibitor, single point]",–
O=C1OCCC1Sc1nnc(-c2cccs2)n1Cc1ccccc1 (stereo not given),"inconclusive: 35.5 µM [activator, single point]",–
CCOc1cc(NC(=S)NCCOC)c(OCC)cc1NC(=O)c1ccco1,"inconclusive: 35.5 µM [inhibitor, single point]",–
CCOc1ccc(OCCSc2nc(N)cc(=O)[nH]2)cc1,"inconclusive: 6.31 µM [inhibitor, partial curve]",–
COc1cc(O)c(C(=O)/C=C/c2ccccc2)c(O)c1,–,inactive: -1.43% [at 10 µM]
CCCOc1cccc(C(=O)NCCNC(=O)c2ccc(C)nc2)c1,inactive,–

SMILES,Potency,"activity, negative = inhibition"
C/C(=N\NC(=S)Nc1cc(S(=O)(=O)N2CCOCC2)ccc1Cl)c1ccccc1F,active: 6.31 µM,–
COc1ccc(CN(CCC(c2ccccc2)c2ccc(OC(C)C)cc2)C(=O)CCl)cc1OC (stereo not given),"inconclusive: 22.4 µM [inhibitor, single point]",–
O=C(NC1CCc2ccccc21)c1cc(COc2cncc(Cl)c2)on1 (stereo not given),"inconclusive: 35.5 µM [inhibitor, single point]",–
Cc1cccc(/C(N)=N/OC(=O)c2ccc3c(c2)OCO3)c1,"inconclusive: 14.1 µM [inhibitor, single point]",–
Cc1ccc(NC(=O)C2CCCCC2)c(O)c1,"inconclusive: 20 µM [inhibitor, single point]",–
Cc1ccc(CN2CCNC(=O)C2CC(=O)N(C)Cc2cnccn2)cc1 (stereo not given),inactive,–
COc1ccc(C(=O)CSc2nnc(CCc3ccccc3)n2-c2ccccc2)cc1,"inconclusive: 35.5 µM [inhibitor, single point]",–
Cc1nn(C)cc1CN(C)C(=O)c1cc(-c2ccccc2)nc2ccc(Br)cc12,inactive,–
O=C(CN1CCOCC1)N/N=C/c1c(O)ccc2ccccc12,active: 1.41 µM,–
CCCCOC(=O)c1ccc(N)cc1,"inconclusive: 11.2 µM [activator, single point]",–
COc1ccc(CCn2c(S)nc3ccccc3c2=O)cc1,"inconclusive: 0.501 µM [inhibitor, full curve]",–
O=C(CCC(=O)c1ccc(Oc2ccccc2)cc1)Nc1ccc(C(=O)O)cc1,inactive,–
NCCCCCCNS(=O)(=O)c1ccc2c(Cl)cccc2c1,active: 28.2 µM,–
Oc1c(Br)cc(/C=N/n2c(-c3ccccc3)n[nH]c2=S)c(O)c1Br,inactive,–
CC1(c2ccc(Cl)cc2)NC(=O)CS1 (stereo not given),"inconclusive: 25.1 µM [inhibitor, single point]",–
COC(=O)c1cc(S(=O)(=O)N2c3ccccc3CC2C)c[nH]1 (stereo not given),inactive,–
CC(NC(=O)C1CCCN(S(=O)(=O)c2cccs2)C1)c1ccccc1 (stereo not given),"inconclusive: 35.5 µM [inhibitor, single point]",–
CC(=O)C1=C(O)CCC1=NCCc1ccccc1,inactive,–
O=C1/C(=C\c2cccnc2)CCc2ccccc21,"inconclusive: 35.5 µM [inhibitor, single point]",–
COc1ccc(CNC(=S)Nc2cc(C)cc(C)c2)cc1,active: 12.6 µM,–
COc1cc(C(=O)Nc2nc(-c3ccc(Cl)cc3)c(C)s2)ccc1OCC(=O)Nc1ccc(F)cc1,"inconclusive: 25.1 µM [inhibitor, single point]",–
Cc1ccc2cc(/C=N/NC(=O)c3ccccc3O)c(Cl)nc2c1,"inconclusive: 3.98 µM [inhibitor, single point]",–
Cc1cc(C)c2c(N)c(C(=O)Nc3nccs3)sc2n1,"inconclusive: 35.5 µM [inhibitor, single point]",–
CC(C)(Oc1ccc(Cl)cc1)C(=O)OCn1nnc2ccccc2c1=O,active: 2.51 µM,–
CC(C)Cn1c(N)c(C(=O)COC(=O)c2cc(C(F)(F)F)nc3ccccc23)c(=O)n(C)c1=O,"inconclusive: 20 µM [inhibitor, single point] and inconclusive: 28.2 µM [inhibitor, single point]",–
